Results as given in PubChem BioAssay AID761 (NMMLSC, 2007).
Among all 190,000 compounds or so, about 400 (0.21%) were called active. The shares of active, inactive and inconclusive entries below differ from those in the screen.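 How the source made its calls: active means percent activity GTP binding at least 20 points away from the 100% baseline, either down as inhibitor or up as activator; inconclusive means compound flagged as likely green fluorescent from well-wide comparison; inactive means the rest.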

These compounds were tested against Cell division control protein 42 homolog (Homo sapiens) (UniProt P60953) (assay: wildtype Cdc42 fluorescent GTP binding changes, either direction – biochemical, multiplex bead flow cytometry, Bodipy-GTP, primary screen (AID 761;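 further: median bead fluorescence of bound Bodipy-FL-GTP at 100 nM; 0% = excess unlabeled GTP control and 100% = no compound control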)). Details: GST-Cdc42 beads, at 10 µM, actives lie on both sides.
Chain of UniProt P60953 (P60953 whole entry, looked up): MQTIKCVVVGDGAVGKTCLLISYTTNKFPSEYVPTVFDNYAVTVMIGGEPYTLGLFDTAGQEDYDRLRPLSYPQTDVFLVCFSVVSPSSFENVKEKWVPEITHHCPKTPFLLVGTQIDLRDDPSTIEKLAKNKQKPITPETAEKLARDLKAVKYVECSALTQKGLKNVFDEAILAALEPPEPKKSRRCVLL
With `O=c1c2cc(N3CCOCC3)ccc2[nH]c(=S)n1Cc1ccco1` the percent activity (GTP binding) was inconclusive: 108%.
With `c1ccc(-c2cnn3c(-c4ccccc4)c(-c4ccccc4)nc3n2)cc1` the percent activity (GTP binding) was inconclusive: 106%.
With `Cc1c(NS(=O)(=O)c2ccc3c(c2)Cc2ccccc2-3)c(=O)n(-c2ccccc2)n1C` the percent activity (GTP binding) was active: 78%.
With `CN(CC(=O)O)S(=O)(=O)c1ccc2c(c1)NC(=O)CC(=O)N2` the percent activity (GTP binding) was inactive: 94%.
With `CSc1nc2ccccc2n1Cc1cccc(F)c1` the percent activity (GTP binding) was inconclusive: 94%.
In the case of `COc1ccc(Cc2nnc(NC(=O)c3ccco3)s2)cc1`, the percent activity (GTP binding) is reported as inconclusive: 104%.
With `COc1ccc(Br)cc1CNC(=O)C1CCN(S(=O)(=O)N2CCC(C)CC2)CC1` the percent activity (GTP binding) was inactive: 101%.
For `Cc1ccc(-n2nnc(-c3cc4ccccc4nc3Cl)n2)cc1`, the percent activity (GTP binding) was inconclusive: 90%.
For `Nc1nnc(-c2cc3c(ccc4ccccc43)oc2=O)s1`, the percent activity (GTP binding) was inconclusive: 86%.
In the case of `CCn1c(SCC(=O)O)nnc1-c1cc2c(C)nn(-c3ccccc3)c2s1`, the percent activity (GTP binding) is reported as inactive: 83%.
In the case of `O=c1c2ccccc2nnn1COc1ccc(F)cc1Cl`, the percent activity (GTP binding) is reported as inconclusive: 85%.
For `COC(=O)N/N=C(\C)c1cccc(C(F)(F)F)c1`, the percent activity (GTP binding) was inconclusive: 94%.
`C/C(N)=C(/C#N)C(=O)COC(=O)c1ccccc1O` was tested, and the percent activity (GTP binding) was inconclusive: 102%.
With `CCOC(=O)CN1C(=O)C(O)=C(C(C)=O)C1c1ccc(F)cc1` (stereo unspecified) the percent activity (GTP binding) was inconclusive: 102%.
In the case of `Oc1c(C(c2ccccn2)N2CCOCC2)ccc2cccnc12` (stereo unspecified), the percent activity (GTP binding) is reported as inconclusive: 217%.
For `CC(C)OCCCn1c(=NC(=O)c2ccncc2)c(C#N)cc2c(=O)n3ccccc3nc21`, the percent activity (GTP binding) was inconclusive: 201%.
With `Cc1ccccc1C(=O)N1CCN(c2ccc(NC(=O)c3ccccc3[N+](=O)[O-])cc2)CC1` the percent activity (GTP binding) was inactive: 96%.
For `COC(=O)CNC(c1ccccc1Cl)c1cc(Br)ccc1NC(=O)CCN1CCOCC1` (stereo unspecified), the percent activity (GTP binding) was inconclusive: 104%.
`O=[N+]([O-])c1cc(-c2ncccn2)c([N+](=O)[O-])s1` was tested, and the percent activity (GTP binding) was inactive: 81%.
In the case of `CNc1nc(N)c(C(=O)C(C)(C)C)s1`, the percent activity (GTP binding) is reported as inactive: 98%.
For `Cc1cc(C)cc(-n2ccnc2SCC(=O)O)c1`, the percent activity (GTP binding) was inactive: 94%.
With `CC(C)=C1C2CCC1C1C(=O)N(c3nc(-c4ccc(C(C)C)cc4)c(C)s3)C(=O)C21` (stereo unspecified) the percent activity (GTP binding) was inactive: 98%.
For `Cc1ccccc1Cc1ccc(Cl)nn1`, the percent activity (GTP binding) was inactive: 95%.
In the case of `O=C(OCC(=O)c1ccc(Cl)cc1Cl)c1ccc2c(c1)C(=O)N(c1cccc3ncccc13)C2=O`, the percent activity (GTP binding) is reported as inconclusive: 81%.
In the case of `O=C(O)CCC(=O)Nc1ccc(C(=O)OC2CCCCC2)cc1`, the percent activity (GTP binding) is reported as inactive: 97%.
With `c1csc(-c2ccnc3ncnn23)c1` the percent activity (GTP binding) was inconclusive: 97%.
For `NS(=O)(=O)c1ccc(CNC(=O)C23CC4CC(CC(C4)C2)C3)cc1`, the percent activity (GTP binding) was inconclusive: 104%.
With `CC(Sc1ccsc1[N+](=O)[O-])C(=O)N1CCN(c2ccccn2)CC1` (stereo unspecified) the percent activity (GTP binding) was inconclusive: 93%.
For `Cc1[nH]c2ccccc2c1/C=C/C(=O)c1ccccc1`, the percent activity (GTP binding) was inconclusive: 112%.
`Cc1cc(N2CCN(C(=O)c3ccco3)CC2)n2nc(-c3cccc(F)c3)cc2n1` was tested, and the percent activity (GTP binding) was inconclusive: 100%.
For `COc1ccc(-n2cc(-c3ccccc3)c3c(=O)[nH]cnc32)cc1`, the percent activity (GTP binding) was inactive: 110%.
In the case of `COCCn1c(SCC(=O)Nc2cccc(C)c2)nnc1C(C)C`, the percent activity (GTP binding) is reported as inconclusive: 103%.
In the case of `N#CC1=C(N)Oc2c(ccc3ccccc23)C1c1ccsc1` (stereo unspecified), the percent activity (GTP binding) is reported as inconclusive: 95%.
In the case of `O=C(CNC(=S)N(CCCN1CCOCC1)Cc1cccs1)N1CCCCCC1`, the percent activity (GTP binding) is reported as inactive: 100%.
In the case of `CCc1c(C)nc2c(C#N)c[nH]n2c1=O`, the percent activity (GTP binding) is reported as inconclusive: 82%.
`CC[N+]1(CC)CC2CCC(C)(C1)C2(C)C` (stereo unspecified) was tested, and the percent activity (GTP binding) was inactive: 96%.
In the case of `O=C(NCCC1=CCCCC1)C(c1ccccc1)c1ccccc1`, the percent activity (GTP binding) is reported as inconclusive: 93%.
With `CCCC(C(=O)NC1=NCCS1)c1ccccc1` (stereo unspecified) the percent activity (GTP binding) was inconclusive: 94%.
With `C=CCNC(=O)COc1ccc(S(=O)(=O)N2CCCC2)cc1` the percent activity (GTP binding) was inconclusive: 97%.
`CCCCNC(=O)CN1C(=O)c2cccc(N)c2C1=O` was tested, and the percent activity (GTP binding) was inconclusive: 94%.
In the case of `O=C(COc1ccc2ccccc2c1)NCCc1ccc2c(c1)OCCO2`, the percent activity (GTP binding) is reported as inconclusive: 86%.
`Cc1cc(=O)n2ncnc2n1COCCO` was tested, and the percent activity (GTP binding) was inactive: 107%.
`O=C(O)c1ccc(CSc2nnc(Cc3ccccc3)o2)cc1` was tested, and the percent activity (GTP binding) was inconclusive: 98%.
With `COc1cccc(NC(=S)NNC(=O)Cn2nc([N+](=O)[O-])cc2C)c1` the percent activity (GTP binding) was inconclusive: 96%.
For `COc1ccccc1-n1c(SC)nc(O)cc1=O`, the percent activity (GTP binding) was inactive: 100%.
`COc1ccc(C)cc1S(=O)(=O)N(CC(=O)O)c1ccc(F)cc1` was tested, and the percent activity (GTP binding) was inconclusive: 89%.
